Some of the results follow.

The chains are these.
B1: PhoQ; a variant is named by its letters at X, in order, P23837 (parent)
chain: MKKLLRLFFPLSLRVRFLLATAAVVLVLSLAYGMVALIGYSVSFDKTTFRLLRGESNLFYTLAKWENNKLHVELPENIDKQSPTMTLIYDENGQLLWAQRDVPWLMKMIQPDWLKSNGFHEIEADVNDTSLLLSGDHSIQQQLQEVREDDDDAEMTHSVAVNVYPATSRMPKLTIVVVDTIPVELKSSYMVWSWFIYVLSANLLLVIPLLWVAAWWSLRPIEALAKEVRELEEHNRELLNPATTRELTSLVRNLNRLLKSERERYDKYRTTLTDLTHSLKTPLXXLQXXLRSLRSEKMSVSDAEPVMLEQISRISQQIGYYLHRASMRGGTLLSRELHPVAPLLDNLTSALNKVYQRKGVNISLDISPEISFVGEQNDFVEVMGNVLDNACKYCLEFVEISARQTDEHLYIVVEDDGPGIPLSKREVIFDRGQRVDTLRPGQGVGLAVAREITEQYEGKIVAGESMLGGARMEVIFGRQHSAPKDE

The assay covers variants of B1. Kind of assay: enrichment ratio after two sorts for PhoP signalling (ratio (wild type AVST 3.29)); higher = more functional. The settings on record: with PhoP (E. coli).
On to CFCT, for which the enrichment ratio was at most 0.25.
YHHC: the enrichment ratio is at most 0.25.
In the case of KISY it was at most 0.25; in that of ASFY, 0.514.
In the case of MAVS it was at most 0.25.
Take GEIP: the enrichment ratio was at most 0.25.
For VSPQ, the enrichment ratio was at most 0.25.
Turning to GVTW, the enrichment ratio is 0.962.
As for IQDR, the figure is at most 0.25.
As for LHAQ, the figure is at most 0.25; as for DVKH, at most 0.25; as for MLLP, at most 0.25.
With YGYA, the enrichment ratio was at most 0.25.
Regarding KGTK, the enrichment ratio was at most 0.25.
In the case of QYKR it was at most 0.25; in that of TCET, at most 0.25.
As to AWYR, the enrichment ratio was at most 0.25.
As for YQCK, the figure is at most 0.25; as for FKQW, at most 0.25.
As for AISD, the figure is at most 0.25.
In the case of HDFE it was at most 0.25; in that of MKHR, at most 0.25; in that of PVIW, at most 0.25.
IVRA: the enrichment ratio is at most 0.25.
As for AWSF, the figure is at most 0.25.
As for LPMP, the figure is at most 0.25.
As to VPCV, the enrichment ratio is at most 0.25.
As for YVLC, the figure is at most 0.25; as for QMVP, at most 0.25.
In the case of QSRR it was at most 0.25; in that of FKTE, at most 0.25.
As for KKYC, the enrichment ratio was at most 0.25.
In the case of VAMI it was 4.35; in that of DEWI, at most 0.25; in that of SWER, at most 0.25.
As for TKCF, the figure is 10.9; as for AGRS, at most 0.25.
As to NRHV, the enrichment ratio is at most 0.25.
With VNAI, the enrichment ratio is 2.16.
In the case of IELY it was at most 0.25.
As for WPID, the figure is at most 0.25; as for MGIQ, at most 0.25; as for EEWC, at most 0.25.
Take KLKK: the enrichment ratio is at most 0.25.
Turning to QPSR, the enrichment ratio is at most 0.25.
As for QSNS, the figure is 0.819; as for SRWN, at most 0.25; as for HFWG, at most 0.25.
On to TPWN, for which the enrichment ratio was at most 0.25.
In the case of ERQA it was at most 0.25.
As for MRQI, the figure is at most 0.25.
As for LFDR, the figure is at most 0.25; as for ITEA, at most 0.25; as for HYTN, at most 0.25.
Take LCNL: the enrichment ratio was at most 0.25.
In the case of REST, the enrichment ratio was at most 0.25.
Consider SFQF, for which the enrichment ratio was at most 0.25.
As for NFSG, the figure is at most 0.25.
In the case of DPQC, the enrichment ratio was at most 0.25.
Regarding PDIN, the enrichment ratio is at most 0.25.
In the case of TYAY it was at most 0.25; in that of QITM, at most 0.25.
As for AFGC, the figure is at most 0.25; as for IKDE, at most 0.25.
As for GGRA, the figure is at most 0.25.
Consider LWYG, for which the enrichment ratio was at most 0.25.
In the case of IREG it was at most 0.25; in that of GAPR, at most 0.25; in that of SAAY, 5.02.
In the case of TWFE, the enrichment ratio was at most 0.25.
In the case of GGQQ it was at most 0.25; in that of LIIK, at most 0.25; in that of MMCH, at most 0.25.
Turning to DSQL, the enrichment ratio is at most 0.25.
As for MHRQ, the figure is at most 0.25; as for FWGD, at most 0.25; as for YIII, at most 0.25.
Regarding VWFV, the enrichment ratio is at most 0.25.
As for IFHE, the figure is at most 0.25.
As for DLMG, the figure is at most 0.25.
In the case of LSFM it was 7.16; in that of HYGD, at most 0.25; in that of THMD, at most 0.25.
Regarding KRAL, the enrichment ratio was at most 0.25.
Regarding FVCA, the enrichment ratio is at most 0.25.
On to FPMV, for which the enrichment ratio was at most 0.25.
In the case of HQLD it was at most 0.25; in that of HFNP, at most 0.25.
For PAVM, the enrichment ratio is at most 0.25.
Turning to YVMY, the enrichment ratio was at most 0.25.
Take TSCK: the enrichment ratio stood at 3.25.
As for HRVP, the figure is at most 0.25; as for TLQK, at most 0.25; as for RLLI, at most 0.25.
As to LFIF, the enrichment ratio is at most 0.25.
As for LQQV, the figure is at most 0.25; as for LPKN, at most 0.25.
As for ELAS, the figure is at most 0.25.
In the case of EHAF it was at most 0.25; in that of WALH, at most 0.25; in that of TCCI, 7.17.
As for PIMT, the enrichment ratio was at most 0.25.
Regarding IQGH, the enrichment ratio was at most 0.25.
As to DMSQ, the enrichment ratio was at most 0.25.
In the case of RIME, the enrichment ratio was at most 0.25.
As for LGVI, the figure is at most 0.25; as for AFHI, at most 0.25.
As for NMDF, the figure is at most 0.25; as for TWPS, at most 0.25; as for YYTN, at most 0.25.
In the case of HLNR it was at most 0.25; in that of WWAW, at most 0.25.
Take VKDF: the enrichment ratio is at most 0.25.
As for FDNW, the figure is 1.84; as for EDIW, at most 0.25.
In the case of GYRQ it was at most 0.25.
In the case of GLRW it was at most 0.25; in that of TKQM, 7.75; in that of HMMG, at most 0.25.
As for QRDI, the enrichment ratio is at most 0.25.
Regarding TFPM, the enrichment ratio was at most 0.25.
As to RDWG, the enrichment ratio was at most 0.25.
As for IWCV, the figure is at most 0.25.
As for WGHG, the figure is at most 0.25; as for MNDY, at most 0.25; as for VLKL, at most 0.25.
In the case of TANT it was 2.62.
Consider MIFE, for which the enrichment ratio was at most 0.25.
As to PHLQ, the enrichment ratio was at most 0.25.
As for FKRW, the figure is at most 0.25; as for EKGP, at most 0.25; as for NFMI, at most 0.25.
As for THKN, the figure is at most 0.25; as for GPLN, at most 0.25; as for FKFT, at most 0.25.
In the case of KHQR it was at most 0.25; in that of DDHQ, at most 0.25; in that of AQCV, 10.1.
Take FLMK: the enrichment ratio is at most 0.25.
In the case of RILQ it was at most 0.25; in that of LWAQ, at most 0.25; in that of DPRQ, at most 0.25.
In the case of PVSD, the enrichment ratio was at most 0.25.
In the case of YEEY it was at most 0.25; in that of AIYI, 0.284; in that of KEAP, at most 0.25.
Consider HSKT, for which the enrichment ratio was at most 0.25.
For KIVF, the enrichment ratio was at most 0.25.
As for NSGR, the figure is at most 0.25.
In the case of MVYG it was at most 0.25; in that of TFWP, at most 0.25; in that of GKMQ, at most 0.25.
As for GPYI, the figure is at most 0.25.
